The whole screen tested about 410,000 compounds, of which about 530 (0.13%) were called active. The inconclusive results got no clear call from the source; some entries with a clear call stand among them for comparison. Calls come from the whole dose curve; as a rule, active = well fitted inhibition curve with a large enough effect; inconclusive = small, poorly fitted or top-dose-only effect, or another doubt; inactive = no such curve, though single readings can be large or run the other way. Potencies of inconclusive entries are doubtful fits and often do not repeat.
Test: qHTS of GLP-1 Receptor Inverse Agonists: Cytotox Screen
Conditions: HEK293 cAMP-luciferase reporter cells, luminescence, 24 h; activity change, negative = inhibition: at 38.3 µM (top of the series) unless noted
Method in brief: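 Here, cytotoxicity is scored as loss of luminescence. The MLSMR collection was tested on cells seeded in medium containing 10% Nu serum, with a 24 hr compound exposure preceded by 12 hours of culture.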
% is set by controls: 0 for no effect and ±100 for the full control effect; potency is the fitted concentration of half-maximal effect.

SMILES | Potency | activity change, negative = inhibition
C/C(=N\NC(=O)C(c1ccccc1)c1ccccc1)c1ccccn1 | inconclusive: 5.62 µM [inhibitor, full curve, poor fit] | 
S=C(NCc1ccco1)Nc1ccc(Oc2ccccc2)cc1 |  | inconclusive: -30.7% [inhibitor]
Cc1cc2cc(CNS(=O)(=O)c3ccccc3)ccc2n1C | inconclusive: 11.2 µM [inhibitor, single point] | 
COc1cc(C(=O)NC(=S)Nc2ccc3ccccc3c2)cc(OC)c1OC | inconclusive: 10 µM [inhibitor, partial curve, poor fit] | 
COc1ccc(NS(=O)(=O)c2cc(C(=O)N3CCN(C/C=C/c4ccccc4)CC3)ccc2C)cc1 | inconclusive: 8.91 µM [inhibitor, single point] | 
O=C1C=C(NCc2ccco2)CC(c2ccc(Cl)cc2)C1 (configuration not stated) | inactive | 
COc1ccc(NC(=O)CSCC(=O)Nc2cc(Cl)ccc2N2CCCC2)cc1 | inconclusive: 28.2 µM [inhibitor, single point] | 
CCC(C)n1c(SCC(=O)Nc2cc(C)on2)nc2ccccc2c1=O (configuration not stated) | inactive | 
CC(=O)Nc1ccc(N2C(=O)CC(Sc3nc(C)cc(C)n3)C2=O)cc1 (configuration not stated) | inconclusive: 28.2 µM [inhibitor, single point] | 
CCSc1cc(N2CCCC2)nc(-c2ccc(C)cc2)n1 | inactive | 
CC(C)NC(=O)NC(=O)COC(=O)c1cc(S(=O)(=O)N2CCCCC2)ccc1N1CCOCC1 | inactive | 
COc1ccc(-c2cnnn2-c2ccc(NC(=O)c3ccc(S(=O)(=O)N(C)C)cc3)cc2)cc1 | inactive | 
Cc1c(Cl)ccc2c(C(=O)NCCN3CCCCC3)cc(-c3ccccn3)nc12 | inconclusive: 28.2 µM [inhibitor, single point] | 
Cc1cccc(C)c1OCCN1CCCC1 | inactive | 
O=S(=O)(NC1c2cccc3cccc(c23)C1N1CCN(CCO)CC1)c1ccccc1 (configuration not stated) | inconclusive: 11.2 µM [inhibitor, single point] | 
COc1cccc(Oc2nc(-c3ccncc3)nc3ccccc23)c1 | inconclusive: 28.2 µM [inhibitor, single point] | 
Nn1cnnc1N/N=C/c1ccc(Cl)c([N+](=O)[O-])c1 | inconclusive: 11.2 µM [inhibitor, partial curve, poor fit] | 
CCOC(=O)[C@H]1[C@H]2COc3ccc(Cl)cc3[C@@H]2N2C(=O)CN(Cc3ccco3)C(=O)[C@@]12C | inconclusive: 12.6 µM [inhibitor, single point] | 
CCOc1cc(N2CCOCC2)c(OCC)cc1NC(=O)c1ccc(C)cc1 | inconclusive: 22.4 µM [inhibitor, single point] | 
CCOc1cc(N2CCOCC2)c(OCC)cc1NC(=O)COc1cccc2cccnc12 | inconclusive: 10 µM [inhibitor, partial curve, poor fit] | 
CC(=O)c1ccc(Oc2cc(C)nc(-n3nc(C)cc3C)n2)cc1 | inconclusive: 1.12 µM [inhibitor, partial curve, poor fit] | 

SMILES | Potency | activity change, negative = inhibition
CCN(CC)c1ccc([N+](=O)[O-])cc1C(=O)O | inconclusive: 12.6 µM [inhibitor, partial curve, poor fit] | 
COC(=O)C1=CC(C(=O)c2cccs2)=NN(c2ccc(OC)cc2)C1C(=O)OC (configuration not stated) | inconclusive: 10 µM [inhibitor, partial curve, poor fit] | 
CCOC(=O)c1cc2oc(C(c3nnnn3C3CCCCC3)N3CCOCC3)cc2[nH]1 (configuration not stated) | inconclusive: 28.2 µM [inhibitor, single point] | 
C[C@H](CO)N1C[C@H](C)[C@@H](CN(C)C(=O)Nc2ccccc2)Oc2c(NC(=O)Nc3ccc(C(F)(F)F)cc3)cccc2C1=O | inconclusive: 12.6 µM [inhibitor, single point] | 
Cc1ccc(NC(=S)NC2CCSc3ccccc32)cc1 (configuration not stated) | inconclusive: 11.2 µM [inhibitor, single point] | 
CCc1ccccc1NCC(=O)Nc1ccc(Cl)c(C(F)(F)F)c1 | inconclusive: 28.2 µM [inhibitor, single point] | 
C[C@@H]1CN([C@H](C)CO)C(=O)c2cc(NC(=O)Cc3ccccc3)ccc2O[C@H]1CN(C)Cc1ccc(Oc2ccccc2)cc1 | inconclusive: 15.8 µM [inhibitor, single point] | 
CC(C)Cc1ccc(C(=O)NCc2ccc3c(c2)OCO3)o1 | inactive | 
COc1ccc(C(CNC(=O)COc2cccc(C(F)(F)F)c2)N2CCCC2)cc1 (configuration not stated) | inconclusive: 22.4 µM [inhibitor, single point] | 
CN(CC(=O)Nc1ccc(F)c(F)c1F)C(=O)c1ccc2c(c1)S(=O)(=O)N=C1CCCCCN12 | inconclusive: 28.2 µM [inhibitor, single point] | 
CCOC(=O)c1ccc(NC(=O)C(Cc2ccccc2)NS(=O)(=O)c2ccc(Br)s2)cc1 (configuration not stated) | inactive | 
CCOC(=O)C(C(=O)OCC)C(C(=O)OCC)N1CCOCC1 (configuration not stated) | inactive | 
O=C(NCc1ccccc1)c1nc[nH]c1C(=O)N1CCc2ccccc2C1 | inconclusive: 5.62 µM [inhibitor, partial curve, poor fit] | 
COc1cc2c(c(OC)c1OC)C(=O)C(=Cc1ccccc1)O2 | inactive | 
COC(=O)NNC(=O)c1ccc(C(C)(C)C)cc1 | inactive | 
COc1ccc(S(=O)(=O)N2Cc3ccccc3CC2C(=O)N2CCOCC2)cc1 (configuration not stated) | inconclusive: 11.2 µM [inhibitor, partial curve, poor fit] | 
CN(C)C(=O)COc1ccc(Oc2ccccc2)cc1 | inconclusive: 0.501 µM [inhibitor, full curve, poor fit] | 
CCn1ncc(Br)c1C(=O)Nc1ccc(C(C)C)cc1 | inactive | 
CCCC(=O)NC(c1ccc(OC)cc1)c1ccc2cccnc2c1O (configuration not stated) | inconclusive: 1.41 µM [inhibitor, full curve, poor fit] | 
O=C(O)[C@@H]1CCCN1C(=O)COc1ccc2c3c(c(=O)oc2c1)CCC3 | inactive | 
CC1(C(=O)NCc2ccccc2)Cc2c(-c3ccc(C(N)=O)cc3)ccnc2O1 (configuration not stated) | inconclusive: 8.91 µM [inhibitor, partial curve, poor fit] | 
